The other results are listed elsewhere or left out. The full chains were built here from the parent and the listed change. Inactive controls read about 0.05.
B1: TEV protease; numbered along this chain (parent)
chain: MGESLFKGPRDYNPISSSICHLTNESDGHTTSLYGIGFGPFIITNKHLFRRNNGTLVVQSLHGVFKVKDTTTLQQHLVDGRDMIIIRMPKDFPPFPQKLKFREPQREERICLVTTNFQTKSMSSMVSDTSCTFPSGDGIFWKHWIQTKDGQCGSPLVSTRDGFIVGIHSASNFTNTNNYFTSVPKNFMELLTNQEAQQWVSGWRLNADSVLWGGHKVFMVKPEEPFQPVKEATQL

Variants of: B1
Test: raw area under fraction-flipped curve 0-4 h after induction (AUC4h, not background-subtracted), DNA-recorder readout of cleavage of the substrate (dimensionless); higher = more cleavage of the substrate by the protease variant
Settings: temperature: 34 °C; time window: 0-4 h after rhamnose induction
Protocol: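 In vivo DNA recorder in E. coli TOP10(DE3) ΔrhaA at 34 °C. Each TEVp single-site mutant (parent TEVp 0) is paired with a single-site variant of the 7-mer TEVs (canonical ENLYFQ|S). The substrate sits between flexible linkers in a Bxb1-sfGFP-TEVs-SsrA fusion, so cleavage stabilises Bxb1 and speeds flipping of a recombination array, read by NGS. The value is the raw area under the fraction-flipped curve over 0-4 h after rhamnose induction (AUC4h), with ≥20 reads per time point. It is not background-subtracted; inactive controls average about 0.047.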
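Further: Bxb1 expression induced with 0.2% (w/v) L-rhamnose at OD600 near 0.5, cultures sampled hourly, flipped fraction per protease–substrate barcode pair counted by paired-end Illumina sequencing.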

MGESLFKGPRDYNPISSSECHLTNESDGHTTSLYGIGFGPFIITNKHLFRRNNGTLVVQSLHGVFKVKDTTTLQQHLVDGRDMIIIRMPKDFPPFPQKLKFREPQREERICLVTTNFQTKSMSSMVSDTSCTFPSGDGIFWKHWIQTKDGQCGSPLVSTRDGFIVGIHSASNFTNTNNYFTSVPKNFMELLTNQEAQQWVSGWRLNADSVLWGGHKVFMVKPEEPFQPVKEATQL [I19E]
area with substrate ENLCFQS: 0.0438 | area with substrate ENLDFQS: 0.0354 | area with substrate ENLEFQS: 0.0482 | area with substrate ENLFFQS: 0.0573 | area with substrate ENLHFQS: 0.0382 | area with substrate ENLIFQS: 0.0454 | area with substrate ENLKFQS: 0.062 | area with substrate ENLLFQS: 0.0462 | area with substrate ENLNFQS: 0.0272 | area with substrate ENLQFQS: 0.0454 | area with substrate ENLSFQS: 0.0531 | area with substrate ENLWFQS: 0.0436

MGESLFKVPRDYNPISSSICHLTNESDGHTTSLYGIGFGPFIITNKHLFRRNNGTLVVQSLHGVFKVKDTTTLQQHLVDGRDMIIIRMPKDFPPFPQKLKFREPQREERICLVTTNFQTKSMSSMVSDTSCTFPSGDGIFWKHWIQTKDGQCGSPLVSTRDGFIVGIHSASNFTNTNNYFTSVPKNFMELLTNQEAQQWVSGWRLNADSVLWGGHKVFMVKPEEPFQPVKEATQL [G8V]
area with substrate ENLCFQS: 0.0657 | area with substrate ENLDFQS: 0.0755 | area with substrate ENLSFQS: 0.0847

MGESLFKGPRDYNPISSSIHHLTNESDGHTTSLYGIGFGPFIITNKHLFRRNNGTLVVQSLHGVFKVKDTTTLQQHLVDGRDMIIIRMPKDFPPFPQKLKFREPQREERICLVTTNFQTKSMSSMVSDTSCTFPSGDGIFWKHWIQTKDGQCGSPLVSTRDGFIVGIHSASNFTNTNNYFTSVPKNFMELLTNQEAQQWVSGWRLNADSVLWGGHKVFMVKPEEPFQPVKEATQL [C20H]
area with substrate ENLCFQS: 0.0431 | area with substrate ENLDFQS: 0.0565 | area with substrate ENLEFQS: 0.0416 | area with substrate ENLFFQS: 0.0625 | area with substrate ENLGFQS: 0.0572 | area with substrate ENLHFQS: 0.0548 | area with substrate ENLIFQS: 0.0677 | area with substrate ENLKFQS: 0.0697 | area with substrate ENLLFQS: 0.048 | area with substrate ENLMFQS: 0.0648 | area with substrate ENLNFQS: 0.0533 | area with substrate ENLPFQS: 0.0348 | area with substrate ENLQFQS: 0.056 | area with substrate ENLRFQS: 0.0438 | area with substrate ENLSFQS: 0.0419 | area with substrate ENLVFQS: 0.0466 | area with substrate ENLWFQS: 0.0376

MGESLFKGPRDYNSISSSICHLTNESDGHTTSLYGIGFGPFIITNKHLFRRNNGTLVVQSLHGVFKVKDTTTLQQHLVDGRDMIIIRMPKDFPPFPQKLKFREPQREERICLVTTNFQTKSMSSMVSDTSCTFPSGDGIFWKHWIQTKDGQCGSPLVSTRDGFIVGIHSASNFTNTNNYFTSVPKNFMELLTNQEAQQWVSGWRLNADSVLWGGHKVFMVKPEEPFQPVKEATQL [P14S]
area with substrate ENLCFQS: 0.0688 | area with substrate ENLDFQS: 0.0681 | area with substrate ENLEFQS: 0.0583 | area with substrate ENLFFQS: 0.0955 | area with substrate ENLHFQS: 0.0655 | area with substrate ENLIFQS: 0.088 | area with substrate ENLKFQS: 0.0825 | area with substrate ENLLFQS: 0.0694 | area with substrate ENLNFQS: 0.0744 | area with substrate ENLPFQS: 0.058 | area with substrate ENLQFQS: 0.0986 | area with substrate ENLRFQS: 0.0751 | area with substrate ENLSFQS: 0.0748 | area with substrate ENLTFQS: 0.0685 | area with substrate ENLWFQS: 0.0658

MGESLFKGPRDYNPISSLICHLTNESDGHTTSLYGIGFGPFIITNKHLFRRNNGTLVVQSLHGVFKVKDTTTLQQHLVDGRDMIIIRMPKDFPPFPQKLKFREPQREERICLVTTNFQTKSMSSMVSDTSCTFPSGDGIFWKHWIQTKDGQCGSPLVSTRDGFIVGIHSASNFTNTNNYFTSVPKNFMELLTNQEAQQWVSGWRLNADSVLWGGHKVFMVKPEEPFQPVKEATQL [S18L]
area with substrate ENLCFQS: 0.0733 | area with substrate ENLDFQS: 0.0545 | area with substrate ENLEFQS: 0.0589 | area with substrate ENLFFQS: 0.0821 | area with substrate ENLGFQS: 0.0714 | area with substrate ENLHFQS: 0.0809 | area with substrate ENLKFQS: 0.0858 | area with substrate ENLLFQS: 0.0666 | area with substrate ENLMFQS: 0.0508 | area with substrate ENLNFQS: 0.0591 | area with substrate ENLPFQS: 0.0794 | area with substrate ENLQFQS: 0.0532 | area with substrate ENLRFQS: 0.0695 | area with substrate ENLSFQS: 0.066 | area with substrate ENLTFQS: 0.0701 | area with substrate ENLVFQS: 0.0903

MGESLFKGPRDYNPISLSICHLTNESDGHTTSLYGIGFGPFIITNKHLFRRNNGTLVVQSLHGVFKVKDTTTLQQHLVDGRDMIIIRMPKDFPPFPQKLKFREPQREERICLVTTNFQTKSMSSMVSDTSCTFPSGDGIFWKHWIQTKDGQCGSPLVSTRDGFIVGIHSASNFTNTNNYFTSVPKNFMELLTNQEAQQWVSGWRLNADSVLWGGHKVFMVKPEEPFQPVKEATQL [S17L]
area with substrate ENLCFQS: 0.0773 | area with substrate ENLDFQS: 0.0662 | area with substrate ENLEFQS: 0.0536 | area with substrate ENLFFQS: 0.0843 | area with substrate ENLHFQS: 0.0666 | area with substrate ENLIFQS: 0.101 | area with substrate ENLKFQS: 0.105 | area with substrate ENLLFQS: 0.072 | area with substrate ENLNFQS: 0.051 | area with substrate ENLPFQS: 0.0991 | area with substrate ENLQFQS: 0.0627 | area with substrate ENLRFQS: 0.0698 | area with substrate ENLSFQS: 0.0739 | area with substrate ENLTFQS: 0.0679 | area with substrate ENLVFQS: 0.0987 | area with substrate ENLWFQS: 0.0684

MGESLFKGPRDYNPISSSICHRTNESDGHTTSLYGIGFGPFIITNKHLFRRNNGTLVVQSLHGVFKVKDTTTLQQHLVDGRDMIIIRMPKDFPPFPQKLKFREPQREERICLVTTNFQTKSMSSMVSDTSCTFPSGDGIFWKHWIQTKDGQCGSPLVSTRDGFIVGIHSASNFTNTNNYFTSVPKNFMELLTNQEAQQWVSGWRLNADSVLWGGHKVFMVKPEEPFQPVKEATQL [L22R]
area with substrate ENLCFQS: 0.0409 | area with substrate ENLDFQS: 0.0445 | area with substrate ENLEFQS: 0.0398 | area with substrate ENLFFQS: 0.0518 | area with substrate ENLGFQS: 0.0597 | area with substrate ENLHFQS: 0.0508 | area with substrate ENLIFQS: 0.0657 | area with substrate ENLKFQS: 0.0569 | area with substrate ENLNFQS: 0.0495 | area with substrate ENLPFQS: 0.0459 | area with substrate ENLQFQS: 0.0434 | area with substrate ENLRFQS: 0.0461 | area with substrate ENLSFQS: 0.0525 | area with substrate ENLWFQS: 0.0437

MGESLFKGPRDYNPISSSICHTTNESDGHTTSLYGIGFGPFIITNKHLFRRNNGTLVVQSLHGVFKVKDTTTLQQHLVDGRDMIIIRMPKDFPPFPQKLKFREPQREERICLVTTNFQTKSMSSMVSDTSCTFPSGDGIFWKHWIQTKDGQCGSPLVSTRDGFIVGIHSASNFTNTNNYFTSVPKNFMELLTNQEAQQWVSGWRLNADSVLWGGHKVFMVKPEEPFQPVKEATQL [L22T]
area with substrate ENLCFQS: 0.0431 | area with substrate ENLDFQS: 0.0594 | area with substrate ENLEFQS: 0.0525 | area with substrate ENLFFQS: 0.0552 | area with substrate ENLGFQS: 0.0549 | area with substrate ENLHFQS: 0.0364 | area with substrate ENLIFQS: 0.0608 | area with substrate ENLKFQS: 0.0504 | area with substrate ENLLFQS: 0.0447 | area with substrate ENLNFQS: 0.0452 | area with substrate ENLPFQS: 0.0408 | area with substrate ENLQFQS: 0.0494 | area with substrate ENLRFQS: 0.045 | area with substrate ENLSFQS: 0.0536 | area with substrate ENLTFQS: 0.0654 | area with substrate ENLWFQS: 0.0504

MGESLFKGGRDYNPISSSICHLTNESDGHTTSLYGIGFGPFIITNKHLFRRNNGTLVVQSLHGVFKVKDTTTLQQHLVDGRDMIIIRMPKDFPPFPQKLKFREPQREERICLVTTNFQTKSMSSMVSDTSCTFPSGDGIFWKHWIQTKDGQCGSPLVSTRDGFIVGIHSASNFTNTNNYFTSVPKNFMELLTNQEAQQWVSGWRLNADSVLWGGHKVFMVKPEEPFQPVKEATQL [P9G]
area with substrate ENLCFQS: 0.0497 | area with substrate ENLDFQS: 0.0518 | area with substrate ENLFFQS: 0.089 | area with substrate ENLHFQS: 0.104 | area with substrate ENLIFQS: 0.0835 | area with substrate ENLMFQS: 0.0768 | area with substrate ENLPFQS: 0.0596 | area with substrate ENLQFQS: 0.0384 | area with substrate ENLSFQS: 0.0568 | area with substrate ENLWFQS: 0.0664
